PMC4336329 (PLoS ONE, 2015)
Among all 310,000 compounds or so, about 14,000 (4.5%) showed an effect of 50% or more. Effects have a minus sign here. This is one part of the list.

target: human ether-à-go-go-related gene (hERG) potassium channel (human, UniProt Q12809); experiment: primary screen, population patch clamp on CHO cells stably expressing hERG
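Note: peak tail current of the secondary pulse compared with the same well before compound.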

human ether-à-go-go-related gene (hERG) potassium channel, sequence (Q12809 whole entry, looked up): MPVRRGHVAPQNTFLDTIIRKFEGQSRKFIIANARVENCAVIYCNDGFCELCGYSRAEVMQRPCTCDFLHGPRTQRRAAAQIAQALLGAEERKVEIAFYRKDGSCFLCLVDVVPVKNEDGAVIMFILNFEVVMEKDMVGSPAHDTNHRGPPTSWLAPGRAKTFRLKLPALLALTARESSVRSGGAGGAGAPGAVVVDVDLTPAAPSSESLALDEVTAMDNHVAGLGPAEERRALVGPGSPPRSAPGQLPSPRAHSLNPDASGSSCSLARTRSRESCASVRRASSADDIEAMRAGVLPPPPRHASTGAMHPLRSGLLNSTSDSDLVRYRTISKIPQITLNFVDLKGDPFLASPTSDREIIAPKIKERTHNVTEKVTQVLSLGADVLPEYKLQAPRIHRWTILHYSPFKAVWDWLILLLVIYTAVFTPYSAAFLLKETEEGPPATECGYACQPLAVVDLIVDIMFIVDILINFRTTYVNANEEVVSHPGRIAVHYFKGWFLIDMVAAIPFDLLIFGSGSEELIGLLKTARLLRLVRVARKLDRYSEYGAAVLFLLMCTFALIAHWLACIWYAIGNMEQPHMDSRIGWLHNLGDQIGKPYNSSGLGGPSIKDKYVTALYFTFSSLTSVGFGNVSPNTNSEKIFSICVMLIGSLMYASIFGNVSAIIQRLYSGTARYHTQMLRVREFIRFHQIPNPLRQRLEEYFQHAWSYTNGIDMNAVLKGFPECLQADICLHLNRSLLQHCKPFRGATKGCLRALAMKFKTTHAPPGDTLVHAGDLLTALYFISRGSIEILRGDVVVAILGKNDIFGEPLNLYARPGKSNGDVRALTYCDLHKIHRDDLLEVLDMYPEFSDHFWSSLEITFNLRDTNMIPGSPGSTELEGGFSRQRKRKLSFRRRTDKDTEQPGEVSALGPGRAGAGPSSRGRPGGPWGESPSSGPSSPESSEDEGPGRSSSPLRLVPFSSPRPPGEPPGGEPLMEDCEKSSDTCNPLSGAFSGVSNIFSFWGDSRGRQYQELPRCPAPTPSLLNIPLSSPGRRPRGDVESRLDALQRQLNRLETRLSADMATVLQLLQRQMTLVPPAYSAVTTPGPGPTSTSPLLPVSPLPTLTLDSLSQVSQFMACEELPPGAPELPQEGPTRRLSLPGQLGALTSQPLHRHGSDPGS

SMILES | hERG current change (%, negative = inhibition) at 10uM [%]
NS(=O)(=O)c1ccc(CCNC(=O)CCCNC(=O)c2ccc(Cl)cc2)cc1 | 13.5
O=C(CCS(=O)(=O)c1cccs1)Nc1ccc(C(=O)NC2CCCC2)cc1 | 12.3
CC(C)n1c(SCC(=O)Nc2nncs2)nnc1-c1ccco1 | -22.8
COCCOC(=O)C1=C(C)OC(N)=C(C#N)C1c1ccc2c(c1)OCO2 (centres unmarked) | -0.292
COc1cc(NC(=O)c2cccc(C)c2)ccc1NC(=O)c1cc2ccccc2o1 | 6.25
COc1ccc(-c2nnc(SCC(=O)NCc3ccco3)n2C)cc1 | -17
Cc1ccc(C(C(=O)Nc2ccc3c(c2)OCO3)N(C)C(=O)Cc2c[nH]c3ccccc23)cc1 (centres unmarked) | 1.58
COc1cc(C)ccc1OCc1cc(C(=O)N(Cc2c(C)nn(C)c2C)C2CC2)no1 | -16.8
O=S(=O)(Cc1ccc(Cl)cc1)CC(O)COCc1ccccc1 (centres unmarked) | 9.12
COc1ccc(C)cc1NC(=O)C1CCN(S(=O)(=O)c2cccc3nonc23)CC1 | 11.1
CCCCCn1c(=O)[nH]c2cc(C(=O)N3CCN(C(=O)OCC)CC3)ccc2c1=O | -9.61
CCOc1ccc(CNC(=O)C2Cc3cc(S(=O)(=O)N4CCCC4)ccc3N2C(C)=O)cc1 (centres unmarked) | -18.4
COc1ccc2[nH]c(=O)c(CN(c3ccccc3OC)S(=O)(=O)c3ccccc3)cc2c1 | 0.00668
CCN1CCCC1CNC(=O)c1cc(S(=O)(=O)CC)c(N)cc1OC (centres unmarked) | -5.06
Cc1ccc(S(=O)(=O)c2nc(-c3ccco3)oc2NCC2CCCO2)cc1 (centres unmarked) | -2.87
Nc1nccnc1C(=O)OCC(=O)NC1CCCc2ccccc21 (centres unmarked) | 20.9
O=C1NCCN(Cc2ccc(F)cc2)C1CC(=O)N1CC=C(c2ccccc2)CC1 (centres unmarked) | 19.5
Cc1onc(-c2c(Cl)cccc2Cl)c1C(=O)N1CCc2ccccc21 | -19.9
O=S(=O)(Nc1cccc2cccnc12)c1ccc(S(=O)(=O)N2CCCC2)cc1 | -11

SMILES | hERG current change (%, negative = inhibition) at 10uM [%]
COc1ccc(/C=N/Nc2nnc(-c3ccccc3)c(=O)[nH]2)cc1 | 11.9
CN(CC(=O)Nc1ccc(Cl)cc1)C1CCCCC1 | -10
Cl.N=c1sccn1CC(=O)NC(c1ccccc1)c1ccccc1 | -63.3
Cc1cccc(C(=O)Nc2ccnc(-c3cccnc3)n2)c1 | -7.39
CCCNC(=O)Nc1ccc(C)cc1C | 21.2
Cl.O=C(OCC1CCNCC1)c1ccc2c(c1)OCO2 | 13.9
Cc1ccc(S(=O)(=O)N2CCC(C(=O)NNC(=O)c3ccccc3)CC2)cc1 | 18.9
CC(C)c1cc(NC(=O)CCl)on1 | 27.9
Cc1ccc(NC(=O)C2CCN(C(=O)c3cccs3)CC2)cc1 | -3.2
Cc1ccc(-c2nnc(CSc3nncn3N)o2)cc1 | 3.64
Cc1ccc(C)c(NC(=S)N2CCCC2)c1 | 10.4
CSc1ncccc1C(=O)OCC(=O)N(CC(C)C)C1CCS(=O)(=O)C1 (centres unmarked) | -0.0479
Cn1c(=O)c2c3c(sc2n2cnnc12)CCC3 | 6.78
C[C@H](C(O)c1ccccc1)N(C)C(=O)CN (some centres unmarked) | 2.95
COc1ccc(S(=O)(=O)N2CCOC23CCN(C(=O)c2ccccc2Br)CC3)cc1 | -26.7
CCCc1cc(=O)[nH]c2nnc(SCC(=O)NC3CCCCC3)n12 | -11.2
O=C(Nc1nnc(-c2cccnc2)s1)c1cccs1 | -21.4
CCN(CC)C(=O)CSc1nc2cc3c(cc2c(=O)n1CCCC(=O)NCc1ccc(OC)cc1)OCO3 | -21.8
COc1ccc(S(=O)(=O)Nc2c3ccccc3nc(=O)n2-c2ccccc2)cc1 | 13.2

SMILES | hERG current change (%, negative = inhibition) at 10uM [%]
CCOC(=O)c1sc(N=Nc2c(O)[nH]c(=O)[nH]c2=O)c(C(=O)OCC)c1C | 1.89
COc1ccc(-c2n[nH]c(C(F)(F)F)c2-c2cc3ccccc3o2)c(O)c1 | 1.13
Cn1nc(C(F)(F)F)c(-c2ccc(F)cc2)c1NC(=O)c1ccco1 | -32.8
CCOC(=O)c1ccc(S(=O)(=O)N2CCN(C(=O)c3nn(C)c(=O)c4ccccc34)CC2)cc1 | -26.5
Cc1nn(C(=O)N2CCCCC2)c(C)c1CN1C(=O)c2ccccc2C1=O | 2.93
CCOC(=O)c1c(C)c(C(=O)N2CCCCCC2)c(C)n1C | 10
N#CC(c1ccccc1)(c1ncc(C(F)(F)F)cc1Cl)N1CCOCC1 (centres unmarked) | 4.23
CCN(CC)c1ccc(C2Nc3cccc4cccc(c34)N2)c(O)c1 | 22.6
CCc1ccc[n+](-c2[nH]c(=O)sc2/C=N/N=C(\[O-])c2cccnc2)c1 | 19.9
COc1ccc(CCN2C(=O)c3[nH]nc(-c4ccccc4O)c3C2c2cccc(O)c2)cc1OC (centres unmarked) | -1.32
Cc1ccc(Cl)cc1NC(=O)c1cc2ccccc2cc1O | -15.5
CCc1c(C)sc(NC(=O)C2CC2)c1C(=O)OC(C)C | -10.9
CCc1nnc(NS(=O)(=O)c2ccc(NC(=O)c3ccc(C#N)cc3)cc2)s1 | 22.7
CCOC(=O)N1CCC(NC(=O)C2CCN(C(=O)N3CCOc4ccccc43)CC2)CC1 | 12.6
Cn1ccsc1=NC(=O)c1ccc(OC(F)(F)F)cc1 | 9.41
O=S(=O)(Nc1nc2ccccc2nc1N1CCc2ccccc2C1)c1ccc(Cl)cc1 | 7.74
Cc1ccc(S(=O)(=O)N(C)Cc2ccc(C(=O)N/N=C3\CCCC(=O)C3)cc2)cc1 | 4.23
Cn1c(=O)cc(OCC(=O)N2CCN(C3CCCCC3)CC2)c2ccccc21 | -18.6
